Data from PMC8424649.
These are yes or no findings as the source states them, for the method shown. In cells and extracts the contact can be indirect. Some results given as binding are weak or reduced against the parent protein; the word gives no strength.

By UniProt entry, the sequences of proteins in these tests, tags left out.
UniProt Q9Y2M0: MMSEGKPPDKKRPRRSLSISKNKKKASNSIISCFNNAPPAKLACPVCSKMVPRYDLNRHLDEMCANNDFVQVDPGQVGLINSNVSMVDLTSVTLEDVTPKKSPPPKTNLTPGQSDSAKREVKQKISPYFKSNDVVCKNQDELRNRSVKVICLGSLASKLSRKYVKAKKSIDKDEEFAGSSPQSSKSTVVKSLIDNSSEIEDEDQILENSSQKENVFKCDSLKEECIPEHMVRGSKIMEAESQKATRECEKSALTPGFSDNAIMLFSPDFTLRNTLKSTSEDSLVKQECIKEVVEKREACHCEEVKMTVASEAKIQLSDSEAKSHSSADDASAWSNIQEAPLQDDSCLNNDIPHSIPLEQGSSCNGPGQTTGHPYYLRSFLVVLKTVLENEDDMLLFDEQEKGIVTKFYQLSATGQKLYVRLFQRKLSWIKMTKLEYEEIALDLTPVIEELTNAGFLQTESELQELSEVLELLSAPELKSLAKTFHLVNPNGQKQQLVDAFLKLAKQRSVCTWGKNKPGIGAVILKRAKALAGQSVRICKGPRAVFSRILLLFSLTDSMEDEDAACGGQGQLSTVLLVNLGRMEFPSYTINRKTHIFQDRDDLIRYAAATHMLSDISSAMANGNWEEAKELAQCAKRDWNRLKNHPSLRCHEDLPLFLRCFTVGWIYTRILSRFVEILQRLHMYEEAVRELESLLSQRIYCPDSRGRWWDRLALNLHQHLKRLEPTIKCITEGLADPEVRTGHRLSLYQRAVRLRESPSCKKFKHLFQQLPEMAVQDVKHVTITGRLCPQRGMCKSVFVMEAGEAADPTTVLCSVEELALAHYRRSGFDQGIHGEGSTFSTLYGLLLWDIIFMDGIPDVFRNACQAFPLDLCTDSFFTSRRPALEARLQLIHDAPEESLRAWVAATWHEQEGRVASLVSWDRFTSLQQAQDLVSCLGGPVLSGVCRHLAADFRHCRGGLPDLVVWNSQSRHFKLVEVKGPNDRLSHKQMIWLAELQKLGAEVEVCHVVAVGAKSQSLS

What was measured:
[1] = biological target: FAN1 (endogenous, human) (human (endogenous in HD iPSCs, lymphoblastoid cells, MSNs)) (UniProt Q9Y2M0); assay: co-IP; endogenous proteins in extracts of HD iPSCs (125 CAG); FAN1 sheep polyclonal or MLH1 monoclonal antibody with protein G magnetic beads; IP buffer 20 mM Tris pH 7.4, 150 mM NaCl, 1 mM EDTA, 1% Triton X-100, Benzonase
[2] = biological target: GFP-FAN1, full-length FAN1 (FAN1^FL) (human) (UniProt Q9Y2M0); assay: co-IP; GFP-Trap beads on extracts of U2OS cells expressing GFP-FAN1 constructs; endogenous partners detected by blot; IP buffer 20 mM Tris pH 7.4, 150 mM NaCl, 1 mM EDTA, 1% Triton X-100, Benzonase
[3] = biological target: myc-tagged FAN1^FL (human) (UniProt Q9Y2M0); assay: cross-linking; xIP-MS: myc-FAN1 from HEK293T lysate on anti-c-myc magnetic beads, on-bead cross-linking with 1 mM BS3 d0/d12, 30 min, 37°C, mass spectrometry (xQuest/xProphet)
[4] = biological target: FAN1 (endogenous, human) (human (endogenous in HD iPSCs, lymphoblastoid cells, MSNs)) (UniProt Q9Y2M0); assay: cross-linking; xIP-MS: endogenous FAN1 from lymphoblastoid cell lysate with sheep FAN1 antibody and protein G magnetic beads, on-bead cross-linking with 1 mM BS3 d0/d12, 30 min, 37°C, mass spectrometry (xQuest/xProphet)

binding [1]: binds
binding [2]: binds
binding [3]: binds
binding [4]: binds
B1: PMS2 (endogenous, human) (protein, UniProt P54278 1-862)
chain: MERAESSSTEPAKAIKPIDRKSVHQICSGQVVLSLSTAVKELVENSLDAGATNIDLKLKDYGVDLIEVSDNGCGVEEENFEGLTLKHHTSKIQEFADLTQVETFGFRGEALSSLCALSDVTISTCHASAKVGTRLMFDHNGKIIQKTPYPRPRGTTVSVQQLFSTLPVRHKEFQRNIKKEYAKMVQVLHAYCIISAGIRVSCTNQLGQGKRQPVVCTGGSPSIKENIGSVFGQKQLQSLIPFVQLPPSDSVCEEYGLSCSDALHNLFYISGFISQCTHGVGRSSTDRQFFFINRRPCDPAKVCRLVNEVYHMYNRHQYPFVVLNISVDSECVDINVTPDKRQILLQEEKLLLAVLKTSLIGMFDSDVNKLNVSQQPLLDVEGNLIKMHAADLEKPMVEKQDQSPSLRTGEEKKDVSISRLREAFSLRHTTENKPHSPKTPEPRRSPLGQKRGMLSSSTSGAISDKGVLRPQKEAVSSSHGPSDPTDRAEVEKDSGHGSTSVDSEGFSIPDTGSHCSSEYAASSPGDRGSQEHVDSQEKAPKTDDSFSDVDCHSNQEDTGCKFRVLPQPTNLATPNTKRFKKEEILSSSDICQKLVNTQDMSASQVDVAVKINKKVVPLDFSMSSLAKRIKQLHHEAQQSEGEQNYRKFRAKICPGENQAAEDELRKEISKTMFAEMEIIGQFNLGFIITKLNEDIFIVDQHATDEKYNFEMLQQHTVLQGQRLIAPQTLNLTAVNEAVLIENLEIFRKNGFDFVIDENAPVTERAKLISLPTSKNWTFGPQDVDELIFMLSDSPGVMCRPSRVKQMFASRACRKSVMIGTALNTSEMKKLITHMGEMDHPWNCPHGRPTMRHIANLGVISQN
